Test results from ChEMBL document CHEMBL1201862, “PubChem BioAssay data set” (2004).
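Grown in 96-well plates, cells were treated for 48 hours with each compound at five concentrations. Insufficient inhibition: endpoint recorded as highest concentration tested. GI50: concentration for 50% inhibition of growth.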 Activity calls are given as the source filed them. Rule as the data show it: active = GI50 up to about 1.1 µM and inactive = higher. Peptide text beside a SMILES is read from it. * marks the point of attachment. Fmoc = O=C(OCC1c2ccccc2-c2ccccc21)*; Boc = CC(C)(C)OC(=O)*

The compounds below were run on NCI-H322M (assay: growth of human tumour cells (NCI), 48 h).
In the case of `Nn1c(=O)[nH]c2ncn(Cc3ccccc3)c2c1=O`, the GI50 is reported as inactive: > 100 µM.
For `COCP1(=S)OC(C)CCN1C(C)C` (configuration not stated), the GI50 was inactive: > 100 µM.
`FC1(F)ON2CCc3ccccc3C2[C@H]1c1ccccc1` (some centres not stated) was tested, and the GI50 was inactive: > 10 µM.
For `CCCOc1ccc2sc(NC(=O)c3cc([N+](=O)[O-])cc([N+](=O)[O-])c3)nc2c1`, the GI50 was inactive: 45.9 µM.
For `CC(Oc1ccc(Cl)cc1Cl)C(=O)NN1C(=O)CSC1c1ccc(Cl)cc1` (configuration not stated), the GI50 was inactive: 47.8 µM.
With `CC(=O)OCC1OC(n2c(C#N)cc(=O)[nH]c2=O)CC1OC(C)=O` (configuration not stated) the GI50 was inactive: > 100 µM.
With `O=S(=O)(O)/C(=N\c1cccc(Cc2ccccc2)c1)Nc1cccc(Cc2ccccc2)c1` the GI50 was inactive: 17.8 µM.
For `O=C(O)CNC(=O)c1ccc(-c2ccccc2)cc1`, the GI50 was inactive: > 100 µM.
With `CC[C@]12C=CCN3CC[C@@]4(c5cc(Br)c(OC)c([N+](=O)[O-])c5N(C)[C@H]4[C@@](O)(C(=O)OC)[C@@H]1OC(C)=O)[C@@H]32` the GI50 was inactive: 65.2 µM.
In the case of `CCCCCCCCCCCCCCCC[N+](C)(C)CCl`, the GI50 is reported as inactive: 13.5 µM.
For `N#CCCn1[nH]c(=O)c(Cl)c(Cl)c1=O`, the GI50 was inactive: 16.6 µM.
In the case of `CCCCCCCCCCC[N+]1(Cc2ccccc2)CC2CCN(Cc3ccccc3)CC2C1` (configuration not stated), the GI50 is reported as inactive: 1.55 µM.
In the case of `O=C(O)CCNCC(=O)O`, the GI50 is reported as inactive: > 100 µM.
With `O=C(CC1S/C(=N\c2ccccc2Cl)NC1=O)Nc1ccc(Cl)cc1` (configuration not stated) the GI50 was inactive: > 100 µM.
In the case of `CC(C)(C)OC(=O)NCCCCC(NC(=O)C(Cc1c[nH]c2ccccc12)NC(=O)OCC1c2ccccc2-c2ccccc21)C(=O)O` (configuration not stated) (Fmoc-Trp-Lys(Boc)-OH; configuration not given here), the GI50 is reported as inactive: 32.2 µM.
With `Cn1cnc([N+](=O)[O-])c1Sc1nnc(-c2cccnc2)n1C` the GI50 was inactive: > 100 µM.
`Oc1c(Cl)c(Cl)c(O)c2c1CCCC2` was tested, and the GI50 was inactive: 16.7 µM.
In the case of `CC(C)CC(Nc1c(O)ccc2ccccc12)C(=O)O` (configuration not stated), the GI50 is reported as inactive: 24.9 µM.
In the case of `CC(C)C1(O)C(=O)N(c2c(F)c(F)c(F)c(F)c2F)C(=S)N1CCSc1ccccc1` (configuration not stated), the GI50 is reported as inactive: 17.9 µM.
With `O=c1c(C(c2cnc3ccccc3c2)c2c(O)oc3ccccc3c2=O)c(O)oc2ccccc12` the GI50 was inactive: 37.7 µM.
`CC(NC(=O)C(C)C(=O)Nc1ccc(C(F)(F)F)cc1)C(N)=O` (configuration not stated) was tested, and the GI50 was inactive: > 100 µM.
`CN(C)c1ccc(/C=c2/c3ccccc3n3c2cc(NC(=O)NCCC[N+](C)(C)C)[n+]3C)cc1` was tested, and the GI50 was inactive: > 100 µM.
With `COc1cc(/C=C/c2nc(N)nnc2C)cc(OC)c1OC` the GI50 was inactive: 26.2 µM.
For `COc1ccc2c(c1)CCc1c(CO)c(COC(=O)NC(C)C)n(C)c1-2`, the GI50 was inactive: 19.4 µM.
For `Cc1ccc(S(=O)(=O)NCCSCCNS(=O)(=O)c2ccc(C)cc2)cc1`, the GI50 was inactive: > 100 µM.
`COc1ccccc1/C(=N\OCCC(=O)O)c1cccs1` was tested, and the GI50 was inactive: > 100 µM.
In the case of `Cc1ccc(-c2c(C#N)c(-c3ccc(Cl)cc3)c(C#N)c(=O)n2NS(=O)(=O)c2ccccc2)cc1`, the GI50 is reported as inactive: 79.8 µM.
With `CC1CC/C(=C\c2ccc(F)cc2)C2=C1C(c1ccc(F)cc1)N1C(=O)CSC1=N2` (configuration not stated) the GI50 was inactive: > 100 µM.
In the case of `CCO/S(=N/S(=O)(=O)c1ccccc1)c1ccccc1[N+](=O)[O-]` (configuration not stated), the GI50 is reported as inactive: > 100 µM.
With `O=C(CCCNc1nc(-c2ccccc2)cs1)c1cccs1` the GI50 was inactive: > 100 µM.
With `Nc1ccc(-c2nc3ccccc3s2)cc1Cl` the GI50 was inactive: 84.5 µM.
With `COC(=O)/C=C1/OC(c2ccc(C)cc2)=C(Cl)C1=O` the GI50 was inactive: 22.8 µM.
With `COC(=O)c1c/c(=N\NC(=O)CC(=O)Nc2ccccc2Cl)c2ccccc2o1` the GI50 was inactive: > 100 µM.
With `COC(=O)C1=C(c2ccc(OC)c(OC)c2)OC(c2cc(OC)c(OC)c(OC)c2)C1` (configuration not stated) the GI50 was inactive: > 100 µM.
In the case of `COc1ccc(OC)c2c1C=CC(Br)=CC2`, the GI50 is reported as active: 0.48 µM.
For `CCC[N+](C)(C)CCCNC(=O)c1c(O)c2ccccc2[nH]c1=O`, the GI50 was inactive: > 100 µM.
`O=C(NC(CO)CO)c1ccc2cc(C(=O)N3CC(CCl)c4ccc([N+](=O)[O-])cc43)[nH]c2c1` (configuration not stated) was tested, and the GI50 was inactive: > 100 µM.
`O=[N+]([O-])c1cccc2nc3ccccc3c(NCCCN3CCCCC3)c12` was tested, and the GI50 was active: < 0.0143 µM.
For `Cc1c2cnccc2c(C)c2c1c1ccccc1n2CCCCCCNCc1ccccc1`, the GI50 was inactive: 1.17 µM.
With `N=C(N)c1ccc(C(NC(=O)CNS(=O)(=O)c2ccc3ccccc3c2)P(=O)(Oc2ccccc2)Oc2ccccc2)cc1` (configuration not stated) the GI50 was inactive: 39.3 µM.
In the case of `COc1cc2c(cc1OC)-c1c3c(cc4c1[C@@H](C2)N(C)CC4)OCO3`, the GI50 is reported as inactive: 2.9 µM.
For `Cc1ccc(/N=N/c2c(O)c(C(=O)O)cc3ccccc23)cc1C`, the GI50 was inactive: > 100 µM.
For `C=C1CC(COc2ccc3c(C)c(Cl)c(=O)oc3c2)(c2ccccc2)OC1=O` (configuration not stated), the GI50 was inactive: 4.11 µM.
In the case of `COC(=O)[C@@]1(C(C)CC(=O)O)CCCCC1=O` (some centres not stated), the GI50 is reported as inactive: > 100 µM.
With `CC1=C2C(=C[C@H]3[C@]4(C)CCCC(C)(C)[C@H]4CC[C@]34O[C@H]24)OC1=O` the GI50 was inactive: > 100 µM.
With `CCCNC1=C(C)C(=O)C2=C(C1=O)[C@H](COC(N)=O)[C@]1(OC)[C@@H]3N[C@@H]3CN21` the GI50 was inactive: 4.19 µM.
With `O=C(OC1=CCN(Br)C1=O)C1=C(O)C(=O)N(Br)C1` the GI50 was inactive: 42.9 µM.
For `O=C1c2cccnc2C(=O)C2C3C=CC(C3)C12` (configuration not stated), the GI50 was inactive: 27.1 µM.
In the case of `CC1OC1C(=O)P(=O)(O)O` (configuration not stated), the GI50 is reported as inactive: > 100 µM.
For `Cc1ccc(C)c2sc3cc(=O)ccc-3nc12`, the GI50 was inactive: 52.2 µM.
In the case of `CCOC(=O)c1cc(=O)n(C)c(=O)n1C`, the GI50 is reported as inactive: > 100 µM.
With `NC(=O)NNc1nc(-c2ccccc2)cs1` the GI50 was inactive: > 100 µM.
For `CCc1ccc(NC(=O)NC(=O)c2ccccc2[N+](=O)[O-])cc1Oc1ncc(Cl)cn1`, the GI50 was active: < 0.0152 µM.
For `O=c1[nH]nc(Cc2ccc(Cl)cc2)n1/N=C\CC/C=N\n1c(Cc2ccc(Cl)cc2)n[nH]c1=O`, the GI50 was inactive: > 75.5 µM.
`O=c1[nH]c(=O)n(C2C(CO)OC(CO)C2O)cc1F` (configuration not stated) was tested, and the GI50 was inactive: > 100 µM.
In the case of `C[Si](C)(C)CN1C(=O)c2ccccc2C1(O)c1ccccc1` (configuration not stated), the GI50 is reported as inactive: > 100 µM.
`CC(=O)OCC1OC(O[C@H]2C=C[C@@H](C(=O)OCc3ccccc3)n3c(=O)n(-c4ccccc4)c(=O)n32)C(OC(C)=O)C(OC(C)=O)C1OC(C)=O` (some centres not stated) was tested, and the GI50 was inactive: 16.8 µM.
With `O=C(O)C1CCCCC1c1c2ccc(=O)c(O)c-2oc2c(O)c(O)ccc12` (configuration not stated) the GI50 was inactive: 67 µM.
`CSc1nc(SC)c2c(C#N)n[nH]c2n1` was tested, and the GI50 was inactive: > 100 µM.
For `CC(=O)OCC1OC(OCCCOP(=O)(OCCC#N)OCC2OC(n3cnc4c(N)ncnc43)C(OC(=O)c3ccccc3)C2OC(=O)c2ccccc2)C(OC(C)=O)C(OC(C)=O)C1OC(C)=O` (configuration not stated), the GI50 was inactive: > 100 µM.
For `Nc1ccc2nc3n(c2c1)C(=O)c1ccccc1-3`, the GI50 was inactive: > 100 µM.
For `CN(C)CC1CC/C(=C\c2ccc(Cl)c(Cl)c2)C1=O` (configuration not stated), the GI50 was inactive: > 61.1 µM.
With `CC(Oc1ccccc1Cl)C(=O)NN1C(=O)CC(=O)N(c2ccc(Cl)cc2)C1=S` (configuration not stated) the GI50 was inactive: 37.6 µM.
In the case of `CC(C)C(=S)N(C)O`, the GI50 is reported as inactive: 38.5 µM.
`Oc1ccc2ccccc2c1/N=N/c1ccccc1` was tested, and the GI50 was inactive: > 100 µM.
With `CC1(C)OC(=S)N(c2ccccc2)C12C=Cc1ccccc1O2` (configuration not stated) the GI50 was inactive: > 100 µM.
`COc1ccc(Nc2c(C#N)c3n(c4ccccc24)c2ccccc2[n+]3C)cc1OC` was tested, and the GI50 was inactive: 3.13 µM.
For `COc1ccc(C(=O)/C=C/c2ccc(OCCSCCCCCCCCCCSCCOc3ccc(/C=C/C(=O)c4ccc(OC)c(OC)c4)cc3)cc2)cc1OC`, the GI50 was inactive: > 100 µM.
`N/C(=N\N=C\c1c[nH]c2ccccc12)Nc1ccccc1` was tested, and the GI50 was active: 0.453 µM.
For `Cc1cc(NS(=O)(=O)c2ccc(Nc3c4ccccc4nc4c(C(=O)Nc5ccc(S(=O)(=O)N=C(N)N)cc5)ccc(Cl)c34)cc2)no1`, the GI50 was inactive: 25 µM.
For `CC(=O)N(C)c1ccc(/N=C/N(C)C)cc1`, the GI50 was inactive: > 100 µM.
With `Nc1c2c(=O)[nH]c(=O)c2c(N)c2c(=O)c3ccccc3c(=O)c12` the GI50 was inactive: 1.23 µM.
With `CC(=O)N1C(CCc2ccccc2)CC(C)(C=O)C1Cc1ccc(O[Si](C(C)C)(C(C)C)C(C)C)cc1` (configuration not stated) the GI50 was inactive: 9.77 µM.
In the case of `CC1=C2[C@@H](c3ccccc3)C3C=CC2(C=C3C(F)(F)F)N(C(=O)NC2CCCCC2)C1=O` (some centres not stated), the GI50 is reported as inactive: > 100 µM.
With `COc1cc(NC(C)c2ccc3c(c2)OCCO3)cc(OC)c1OC` (configuration not stated) the GI50 was inactive: 53 µM.
In the case of `CC(=O)NC(CCCN)C(=O)NCc1ccccc1` (configuration not stated), the GI50 is reported as inactive: > 100 µM.
`Nc1cc(S(=O)(=O)O)cc2ccc(S(=O)(=O)O)cc12` was tested, and the GI50 was inactive: > 100 µM.
`CCCN1C(=O)/C(=C(/O)C(=O)OCC)C(c2ccc(OC)c(OC)c2)C1=O` (configuration not stated) was tested, and the GI50 was inactive: > 95.1 µM.
`C/C=C(\C)C(=O)OC1C(C)=C2C(C1OC(=O)CCCC)C(C)(OC(C)=O)CC(OC(=O)CCCC)C1(O)C2OC(=O)C1(C)O` (configuration not stated) was tested, and the GI50 was active: 0.566 µM.
With `OC1c2ccccc2CC12Cc1ccccc1C2` (configuration not stated) the GI50 was inactive: > 100 µM.
With `S=P(c1ccccc1)(c1ccccc1)C1(C2(P(=S)(c3ccccc3)c3ccccc3)CC2)CC1` the GI50 was inactive: > 100 µM.
In the case of `C#CCn1c(=O)c(C)cn(/C(=C\C(=O)OCC)C(=O)OCC)c1=O`, the GI50 is reported as inactive: 20.7 µM.
With `CCC1CCN/C(=N/S(=O)(=O)c2cc(C)c(Cl)cc2S)N1` (configuration not stated) the GI50 was inactive: 47.8 µM.
For `O=c1[nH]c(Nc2nc3ccccc3[nH]2)nc(O)c1-c1ccccc1`, the GI50 was inactive: > 100 µM.
With `CCN(CC(=O)O)CC(=O)O` the GI50 was inactive: > 100 µM.
`O=C(Nc1ccc(Cl)c(Cl)c1)C(=O)Nn1c(S)nc2ccccc2c1=O` was tested, and the GI50 was inactive: > 100 µM.
With `C[Si]1(C)C(c2ccccc2)=CC2C(c3ccccc3)(c3ccccc3)OC21c1ccccc1` (configuration not stated) the GI50 was inactive: > 100 µM.
With `COc1ccc2nc3cc(Cl)ccc3c(NCCCN(C)CCCNc3ccc4ncn5c6ccccc6c(=O)c3c45)c2c1` the GI50 was active: 1.02 µM.
`Cc1cc(N2CCCCC2)nc2ccc(Cc3ccc4nc(N5CCCCC5)cc(C)c4c3)cc12` was tested, and the GI50 was inactive: > 100 µM.
With `COc1cccc(N2C(=O)CSC2c2cccc(Oc3ccccc3)c2)c1` (configuration not stated) the GI50 was inactive: 6.08 µM.
In the case of `N#Cc1cc(-c2nc3cc(F)ccc3s2)ccc1N`, the GI50 is reported as active: 0.0841 µM.
For `CC(C)N(C(=O)C12C3C4C1C1C2C3C41C(O)C(C)(C)C)C(C)C` (configuration not stated), the GI50 was inactive: > 50 µM.
